# Toxic doses and inconclusive results are not listed. A number of entries come with more than one value. Only these are listed. There may be further records. The values listed for one entry are repeated measurements (runs, samples, wells, individuals or studies).
# Tested on: CAF1 mice, leiomyosarcoma No.2 ip, survival T/C%
# Assay: NCI In Vivo Anticancer Drug Screen. Data for tumor model Leiomyosarcoma (No. 2) (intraperitoneal) in CAF1 mice
# Details: endpoint: mean survival time, schedule: Q01DX010 (ip), vehicle: saline, higher = longer survival
# Description: The antitumor activity of compounds was measured in mice bearing transplantable tumors. Survival or tumor size were measured and the results are expressed as the measurement made in the treated group (T) divided by the measurement made in the vehicle treated control group (C). The tumor model used in this assay is Leiomyosarcoma (No. 2) (intraperitoneal) in CAF1 mice
smiles,measurement,setting,value
CCCSc1ncnc2nc[nH]c12,T/C,dose: 62.5 mg/kg/injection,106 % of control and 182 % of control
CC(=O)N(C)C,T/C,dose: 125.0 mg/kg/injection,103 % of control and 195 % of control
Nc1nc(=S)c2[nH]cnc2[nH]1,T/C,dose: 2.5 mg/kg/injection,92 % of control and 156 % of control
O=c1[nH]c(=O)n(C2CC(O)C(CO)O2)cc1F (stereo not drawn),T/C,dose: 20.0 mg/kg/injection,122 % of control and 169 % of control
N#[N+]c1cnc([O-])[nH]c1=O,T/C,dose: 1.25 mg/kg/injection,120 % of control and 177 % of control
same,T/C,dose: 5.0 mg/kg/injection,113 % of control and 195 % of control
N=[N+]=CC(=O)OCC(N)C(=O)O (stereo not drawn),T/C,dose: 12.5 mg/kg/injection,100 % of control and 191 % of control
OCC1OC(n2cnc3c(=S)nc[nH]c32)C(O)C1O (stereo not drawn),T/C,dose: 40.0 mg/kg/injection,111 % of control and 150 % of control

# Source: PubChem BioAssay AID238 (DTP/NCI, 2004)
